The campaign covered roughly 310,000 compounds. About 14,000 (4.5%) showed an effect of 50% or more. Effects have a minus sign here. Some of the results follow.

The results in this text go back to PMC4336329 (PLoS ONE, 2015).
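Also: peak tail current of the secondary pulse compared with the same well before compound.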

For the test, the target named is human ether-à-go-go-related gene (hERG) potassium channel (human, UniProt Q12809). The experiment in a line: primary screen, population patch clamp on CHO cells stably expressing hERG.
human ether-à-go-go-related gene (hERG) potassium channel, sequence (Q12809 whole entry, looked up): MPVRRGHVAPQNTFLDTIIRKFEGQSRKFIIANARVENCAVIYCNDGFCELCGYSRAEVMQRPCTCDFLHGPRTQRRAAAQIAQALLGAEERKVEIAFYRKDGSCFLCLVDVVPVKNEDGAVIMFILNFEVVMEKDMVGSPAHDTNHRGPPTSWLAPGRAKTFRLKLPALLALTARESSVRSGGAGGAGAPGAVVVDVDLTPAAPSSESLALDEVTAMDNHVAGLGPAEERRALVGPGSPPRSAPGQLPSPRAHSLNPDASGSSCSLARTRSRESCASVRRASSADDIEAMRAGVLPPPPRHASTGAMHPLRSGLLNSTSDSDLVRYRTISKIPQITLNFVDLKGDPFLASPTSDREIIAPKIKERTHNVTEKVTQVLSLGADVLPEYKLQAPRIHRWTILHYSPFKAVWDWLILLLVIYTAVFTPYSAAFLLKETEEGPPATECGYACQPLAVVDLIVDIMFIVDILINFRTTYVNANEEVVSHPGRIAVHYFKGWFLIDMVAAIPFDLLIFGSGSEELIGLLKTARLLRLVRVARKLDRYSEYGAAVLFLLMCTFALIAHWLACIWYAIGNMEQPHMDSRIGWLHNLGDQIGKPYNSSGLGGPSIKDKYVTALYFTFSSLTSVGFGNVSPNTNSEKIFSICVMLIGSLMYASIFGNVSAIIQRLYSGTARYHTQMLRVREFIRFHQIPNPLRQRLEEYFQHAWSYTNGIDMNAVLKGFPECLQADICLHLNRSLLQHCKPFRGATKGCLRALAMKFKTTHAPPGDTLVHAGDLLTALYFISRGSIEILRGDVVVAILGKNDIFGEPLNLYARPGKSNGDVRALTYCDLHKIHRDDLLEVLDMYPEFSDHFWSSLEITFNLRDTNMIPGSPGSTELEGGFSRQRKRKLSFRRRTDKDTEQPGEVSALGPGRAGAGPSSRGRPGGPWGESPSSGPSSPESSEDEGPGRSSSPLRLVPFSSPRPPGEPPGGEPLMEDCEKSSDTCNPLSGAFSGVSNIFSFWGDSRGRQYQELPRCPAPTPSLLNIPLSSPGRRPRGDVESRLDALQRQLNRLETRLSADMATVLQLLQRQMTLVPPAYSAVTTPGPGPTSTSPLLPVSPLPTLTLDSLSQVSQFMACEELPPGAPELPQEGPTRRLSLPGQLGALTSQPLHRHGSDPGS
Take `Cc1[nH]c(=O)[nH]c(=O)c1S(=O)(=O)Nc1ccc(F)cc1Cl`: the “hERG current change (%, negative = inhibition) at 10uM” value worked out at 17.1%. Under `COc1ccc(C(=O)NCCS(=O)(=O)NCc2ccccc2OC)cc1` stands -9.14%; under `O=C(NC1CCCCC1)c1ccc(S(=O)(=O)c2ccccc2)cc1`, 2.02%; under `O=C(NCCc1c[nH]c2ccccc12)/C(=C\c1cccnc1)NC(=O)c1ccco1`, -65.1%.

For `CCC1CCCCN1S(=O)(=O)c1ccc(C(=O)Nc2nnc(-c3cccs3)o2)cc1` (stereo not shown), the “hERG current change (%, negative = inhibition) at 10uM” value is recorded as -10.6%. On to `CNC(=S)NCc1ccc(Cl)cc1`, for which the “hERG current change (%, negative = inhibition) at 10uM” value was -5.22%. Under `CSC1=NCCN1C(=O)c1c(F)cccc1Cl` stands -6.56%; under `CCN(CC(=O)Nc1ccccc1C(F)(F)F)C(=O)c1cc(S(=O)(=O)N(C)C)ccc1N1CCCC1`, 10.2%.

Take `O=c1[nH]c(CSc2ncnc3sc(-c4ccccc4)cc23)nc2ccccc12`: the “hERG current change (%, negative = inhibition) at 10uM” value was 21.2%. In the case of `CCN(CC)c1ccc(NC(=S)NCC2CCCO2)cc1` (stereo not shown) it was 7.83%.

With `CCCCn1c(N)c(N(CCC(C)C)C(=O)c2ccccc2C)c(=O)[nH]c1=O`, the “hERG current change (%, negative = inhibition) at 10uM” value came out at 21.9%.

With `O=C(Nc1ccc2oc(-c3ccncc3)nc2c1)c1ccc2c(c1)OCCO2`, the “hERG current change (%, negative = inhibition) at 10uM” value is on record as 9.11%. For `O=C(NCc1ccco1)c1cccc(N2CCCC2=O)c1`, the “hERG current change (%, negative = inhibition) at 10uM” value is -0.984%.

With `O=C(c1ccc(Cl)c(Cl)c1)N1CCC(=O)N(C(COCc2cccc(C(F)(F)F)c2)Cc2ccccc2)CC1` (stereo not shown), the “hERG current change (%, negative = inhibition) at 10uM” value is -19.7%. Under `CC1CCC2(CC1)NC(=O)N(CC(=O)NCc1cccs1)C2=O` (stereo not shown) stands 1.95%; under `O=C(Nc1ccc(Cl)cc1)N(Cc1nnc2n1CCCCC2)c1ccccc1`, -15.7%. For the compound `Cn1c(=O)[nH]c(=O)c2c1nc(SCCC(=O)O)n2Cc1cccc(Br)c1`, the “hERG current change (%, negative = inhibition) at 10uM” value came out at 1.52%. In the case of `CCOC(=O)N1CCC(NCCNC(=O)c2cccc(F)c2)CC1.Cl` it was -3.59%; in that of `CCOC(=O)[C@@H](CCc1ccccc1)N[C@H](C)C(=O)N1[C@H](C(=O)O)C[C@@H]2CCC[C@@H]21`, 15.9%; in that of `O=C(O)c1cccc(N2C(=O)c3cccnc3C2=O)c1`, 3.41%.

With `Cc1cccc(NC(=O)C2CCN(S(=O)(=O)c3cccc4nsnc34)CC2)c1`, the “hERG current change (%, negative = inhibition) at 10uM” value was -6.3%. On to `Cc1cc(NC(=O)CSC2=NS(=O)(=O)c3ccccc3N2)no1`, for which the “hERG current change (%, negative = inhibition) at 10uM” value came to 15.3%. Under `O=C(N/C(=C\c1ccc(O)cc1)C(=O)N1CCCCC1)c1ccccc1` stands 5.13%; under `Cc1ccc(C(=O)N2CCN=C2SCc2ccc([N+](=O)[O-])cc2)cc1`, -70.5%; under `NNC(=O)CCN(Cc1ccco1)S(=O)(=O)c1ccc(Cl)cc1`, 7.94%. Regarding `Cc1csc(C(C#N)C(=O)c2ccncc2)n1` (stereo not shown), the “hERG current change (%, negative = inhibition) at 10uM” value was 19.2%.

For the compound `COc1ccc(Oc2coc3cc(OC(=O)c4cncc(Br)c4)ccc3c2=O)cc1`, the “hERG current change (%, negative = inhibition) at 10uM” value is given as 11.3%. As to `COc1ccc(-n2ccnc2SCC(=O)NC2CCCC2)c(OC)c1`, the “hERG current change (%, negative = inhibition) at 10uM” value is recorded as -10.8%. In the case of `COc1cccc(OC)c1C(=O)Nc1cccc2c1CCCC2` it was 9.17%. In the case of `CC(C)(C)c1ccc(/C=N/Nc2ccc(C(=O)O)cc2)cc1` it was 5.01%. In the case of `c1ccc(CNc2nc3ccccc3n3cnnc23)cc1` it was -4.49%.

`CC1=NN(c2ccc(C(=O)O)cc2)C(=O)CC1`: the “hERG current change (%, negative = inhibition) at 10uM” value is 14.1%. In the case of `Oc1[nH]c2ccccc2c1N=NC(=S)NCCc1ccccc1` it was 11.2%. In the case of `CC(C)c1ccc(C2N3CC4([N+](=O)[O-])CN2CC([N+](=O)[O-])(C3)C4(C)C)cc1` (stereo not shown) it was 28.4%; in that of `Cc1ccc2cc([N+](=O)[O-])ccc2n1`, 13.3%.

For `CCOc1cc2[nH]c(=S)n(CCCC(=O)NCc3ccccn3)c(=O)c2cc1OCC`, the “hERG current change (%, negative = inhibition) at 10uM” value amounted to 17.2%.

With `COc1cccc(NC(C)=[N+](C)CCNS(=O)(=O)c2ccc(Cl)cc2)c1.[I-]`, the “hERG current change (%, negative = inhibition) at 10uM” value is -64.4%. Under `CCOC(=O)CC(=O)CSc1nc2c(cc1C#N)CCCCCC2` stands -1.49%; under `CCOC(=O)CC1C(=O)NCCN1C(=O)Nc1ccc(Cl)cc1` (stereo not shown), 2.37%; under `N#Cc1c(N)nc(SCC(=O)NCc2ccc3c(c2)OCO3)c(C#N)c1-c1cccs1`, -7.09%. In the case of `Cc1noc(C)c1COc1ccccc1C(=O)N(C)Cc1ccco1` it was -1.8%; in that of `CCCS(=O)(=O)N1CCCC(C(=O)N2CCC(Cc3ccccc3)CC2)C1` (stereo not shown), -19.9%.

For `CCn1c(O)c(/C=N/N=C/c2ccccc2)c2ccc(C3=NNC(=O)CC3)cc21`, the “hERG current change (%, negative = inhibition) at 10uM” value is -2.88%. Under `CC1CCCN(C(=O)Nc2cccc(NC(=O)N3CCCC(C)C3C)c2)C1C` (stereo not shown) stands 0.168%; under `CC(/C=N\NC(=O)CN1CCN(Cc2ccccc2)CC1)=C\c1ccco1`, -53.6%; under `O=C(CSc1nnc(Nc2ccccc2)s1)Nc1cccnc1Cl`, -6.39%. Under `COCCCNC(=O)CSc1c2c(nc3ccc(Cl)cc13)CCCC2` stands 5.57%; under `CCN(Cc1ccccc1)S(=O)(=O)c1cc(C(=O)OC)n(C)c1`, -32.9%. As for `CCOc1ccccc1NC(=O)CCCCCN1C(=O)[C@@H]2Cc3ccccc3CN2C1=O`, the “hERG current change (%, negative = inhibition) at 10uM” value is -42.6%. In the case of `C1=C(C(c2nnnn2C2CCCCC2)N2CCCCC2)COc2ccccc21` (stereo not shown) it was -0.938%; in that of `CCn1cc(C(=O)O)c(=O)c2cc(F)c(N3CCN(C(=S)Nc4ccccc4OC)CC3)cc21`, -4.39%. In the case of `CCN=C(NCC)SC1CC(=O)N(c2cccc(OCC)c2)C1=O` (stereo not shown) it was 2.63%; in that of `CCC1(c2ccccc2)NC(=O)N(CC(=O)N(C)CC(=O)Nc2ccc(F)c(F)c2F)C1=O` (stereo not shown), -14.7%. Under `CC(Nc1n[nH]c(=O)[nH]c1=O)C(=O)N/N=C/c1ccccc1` (stereo not shown) stands 1.27%. Regarding `O=C(NNC(=O)c1ccccc1F)c1cccs1`, the “hERG current change (%, negative = inhibition) at 10uM” value turned out to be 11.2%. In the case of `O=C(NCCc1cn2ccccc2n1)C1CCCCC1` it was -7.64%; in that of `COc1ccc(OCC(=O)Nc2ccc3c(c2)nc(CN2CCN(C(C)=O)CC2)n3C)cc1.Cl`, -25%. Under `CC(C)c1ccccc1NC(=O)COC(=O)c1cccnc1` stands 12.9%; under `CC1(C)CC(=O)C2=C(C1)N(c1ccccc1)C(N)=C(C#N)C2c1cccnc1` (stereo not shown), -4.31%; under `Cn1c(N)c(C#N)c2c(c1=S)COC(C)(C)C2`, 4.46%. Under `CC(=O)Nc1ccc(NC(=O)Cn2cc3c(n2)CCCC3)cc1` stands 4.96%; under `c1ccc(-c2nnc(SCC3CCCCO3)nc2-c2ccccc2)cc1` (stereo not shown), 12.2%; under `O=C(NCC1CCCO1)c1ccc([N+](=O)[O-])s1` (stereo not shown), 25.4%. As to `COc1cccc(C(=O)OCC(=O)NCCCc2ccccc2)c1`, the “hERG current change (%, negative = inhibition) at 10uM” value is listed as -2.08%. In the case of `COc1ccc(CCNC(=O)C(=O)NCc2ccc(Cl)cc2)cc1OC` it was 19%. Under `NS(=O)(=O)c1ccc(NC(=O)CSc2n[nH]c(=O)n2Cc2ccccc2)cc1` stands 26.3%; under `COc1cccc(C2=CC(c3ccccc3)n3ncnc3N2)c1` (stereo not shown), -2.39%. Turning to `O=C(NN1CCCCC1)c1ccccc1`, the “hERG current change (%, negative = inhibition) at 10uM” value is on record as 3.71%. With `COc1ccc2c(c1)c(C(=O)N/N=C/c1ccccc1Cl)c(C)n2C`, the “hERG current change (%, negative = inhibition) at 10uM” value is recorded as -4.06%.

Turning to `CC(=O)N1CCc2c(sc(NC(=O)C3CC3)c2-c2nc3ccccc3s2)C1`, the “hERG current change (%, negative = inhibition) at 10uM” value was 6.41%.

In the case of `O=C(CNC(=O)c1cccs1)NCC(=O)OCc1cccc(Cl)c1`, the “hERG current change (%, negative = inhibition) at 10uM” value was -14.5%. In the case of `Cc1nc(-c2ccc(F)cc2)c(CC(=O)NCC(=O)Nc2ccc(F)c(F)c2)s1` it was -34.8%; in that of `COc1ccc(S(=O)(=O)N2CCC(C(=O)NC3CCCC3)CC2)cc1OC`, 27.8%. Under `Cc1ccc(-n2c(=O)[nH]cc(C(=O)N3CCc4ccccc43)c2=O)cc1C` stands 1.95%; under `COC(=O)C1CN(C(=O)COc2ccc(Cl)cc2C)c2ccccc2O1` (stereo not shown), 13.2%.

As for `O=S(=O)(c1cccc(C(F)(F)F)c1)N1CCN(C(=S)NC2CC2)CC1`, the “hERG current change (%, negative = inhibition) at 10uM” value amounted to 5.84%. `Cc1[nH]nc2c1C(C1CC=CCC1)C(C#N)=C(N)O2` (stereo not shown): the “hERG current change (%, negative = inhibition) at 10uM” value stood at 5.88%. As for `Cc1ccc(-n2nc(-c3cccnc3)cc2C(=O)N2CCOCC2)c(C)c1`, the “hERG current change (%, negative = inhibition) at 10uM” value was -14.4%. Take `Cc1ccc(NC(=S)/C(=C(\[O-])c2ccc(C)c([N+](=O)[O-])c2)[n+]2ccccc2)cc1C`: the “hERG current change (%, negative = inhibition) at 10uM” value is given as -6.87%. In the case of `Cn1c(=O)c2c(nc(CN3CCOCC3)n2CCc2ccccc2)n(C)c1=O`, the “hERG current change (%, negative = inhibition) at 10uM” value came to 7.53%.

Take `CCn1cc(C(=O)NCCCN(C)C)c(=O)c2cc(F)c(N3CCN(C)CC3)cc21.Cl`: the “hERG current change (%, negative = inhibition) at 10uM” value was determined as 9.27%. In the case of `CC(NCC(O)COCc1ccc(Cl)cc1)c1ccccc1.Cl` (stereo not shown) it was -43.1%; in that of `COc1ccc(C(=O)NN2CCOCC2)cc1`, -32.6%; in that of `OCC[C@H]1C[C@H](O)[C@@H](O)[C@@]2(OCc3ccccc32)O1`, 8.35%.

In the case of `CCOc1ccccc1OCCCOc1ccc([N+](=O)[O-])cc1Cl`, the “hERG current change (%, negative = inhibition) at 10uM” value worked out at 15.6%. Under `Cn1cnnc1SC1c2cccc3cccc(c23)C1NS(=O)(=O)c1ccccc1` (stereo not shown) stands -17.5%; under `COc1ccc(Cn2nnnc2C(c2cc(OC)ccc2OC)N2CCC(C(N)=O)CC2)cc1` (stereo not shown), -0.796%. In the case of `Br.CCCC1CC(C)(C(=O)CSc2n[nH]c(-c3ccccc3)n2)OC1=O` (stereo not shown) it was -30.3%.
